The supplement of paper PMC10986608
Some of the results follow. Many values rest on one well or one pass, so single values are uncertain.

What follows are compounds tested on Candida albicans DPL-15 (assay: growth (OD600) after compound treatment (apparently relative to screen median) (relative growth (fraction; screen median 1.02)); DPL-15 is a caspofungin-resistant clinical isolate; higher = more fungal growth (less antifungal activity)). Conditions: 25 µM; RPMI 1640; 48 h; 30 °C.

| SMILES | growth |
| --- | --- |
| COC(=O)[C@]12Oc3cccc(O)c3C(=O)C1=C(O)CC[C@@H]2O | 1.39 |
| CC1=NCCN(C)C2=C1C(c1ccc3c(c1)OCO3)N(Cc1ccccc1)C2=O (stereo not drawn) | 0.924 |
| COC(=O)C/C=C/[C@H](C)[C@@H](NC(=O)[C@@H](Cc1ccccc1)NC(=O)OC(C)(C)C)C1CC1 | 1.08 |
| CC(C)CCc1cc(O)cc2oc3ccccc3c(=O)c12 | 1 |
| COC(=O)c1cc(-c2ccccc2)c(C(=O)OC)nn1 | 1.07 |
| Cc1cc2c(-c3ccccc3)c(-c3ccccc3)nc3c2n1CCCC3 | 1.09 |
| CC(=O)C1=C(C)N(Cc2ccc(C(F)(F)F)cc2)C(=S)NC1c1cccc(Cl)c1 (stereo not drawn) | 0.919 |
| Cc1nn(C)cc1Nc1cc(O)cc(O)c1C(=O)N1CC2CC2C1 (stereo not drawn) | 1.2 |
| O=Cc1ccccc1OC/C=C/c1ccccc1 | 1.03 |
| COC[C@H]1O[C@H](c2ccccc2)C=C[C@@H]1OCC#Cc1cc(C#N)ccc1N | 0.932 |
| Cc1cccc2c1N=C1CCCCC12Cc1occc(=O)c1OS(C)(=O)=O (stereo not drawn) | 1.25 |
| COCCN1C(NCCc2cccs2)=NC(c2ccccc2)C(C(=O)OC)=C1C (stereo not drawn) | 1.16 |
| C[C@H]1Cc2c(-c3ccccc3)nc3c(c2CO1)CN(C(=O)Nc1cccc(C#N)c1)CC3 | 0.97 |
| CS(=O)(=O)Oc1c(CC23CCCCC2=Nc2ccccc23)occ(Br)c1=O (stereo not drawn) | 0.933 |
| CC(C)CC1=NCC(C)(C)NC2=C1C(c1cccc(C(F)(F)F)c1)NC2=O (stereo not drawn) | 0.964 |
| CC1=C[C@H](COc2cccc(F)c2)O[C@]2(C1)C(=O)N(Cc1ccccc1)c1ccccc12 | 0.896 |
| CC(C)Cc1nn(-c2ccccc2)c2c1C(c1ccc3c(c1)OCO3)NC2=O (stereo not drawn) | 0.918 |
| O=C(NCC1=CC=CC=C1)C12CC3C[C@@H](CC(C3)C1)C2 | 0.963 |
| CC/C=C/C[C@@]1(C(=O)OC)C=C[C@@H](C)[C@H](c2ccccc2Br)N1C(=O)C(F)(F)F | 0.911 |
| COC(=O)C/C=C/[C@@H](C)[C@H](NC(=O)OC)c1ccccc1Br | 0.943 |
| Cc1cc(F)ccc1C1c2c(CC(C)C)n[nH]c2C(=O)N1c1ccc(N(C)C)cc1 (stereo not drawn) | 0.937 |

| SMILES | growth |
| --- | --- |
| COC(=O)C1=C(C)NC(=O)NC1c1ccc(Cl)cc1 (stereo not drawn) | 1.16 |
| O=c1ccoc(CC23CCCC2=Nc2ccccc23)c1O (stereo not drawn) | 1.12 |
| COc1ccc2c(c1)O[C@H](c1ccc3c(c1)OCO3)[C@@H](OC(=O)Nc1ccc(C)c(Br)c1)C2=O | 1.53 |
| COc1ccc(OC)c(-c2ccccc2/C=N/NS(C)(=O)=O)c1 | 0.983 |
| COc1ccc(C2NC(=S)N(C(C)(C)C)C(C)=C2C(C)=O)cc1 (stereo not drawn) | 1.02 |
| CC1=NCC(C)(C)NC2=C1C(c1cccc(C(F)(F)F)c1)NC2=O (stereo not drawn) | 0.886 |
| COC(=O)c1cc(OC)c(Cl)c(O)c1I | 0.844 |
| CNc1ccccc1C(=O)OCC(=O)c1ccc(OC)cc1 | 1.03 |
| O=S(=O)(c1cccs1)N1CCCc2nc(-c3ccc(Br)cc3)ccc21 | 0.976 |
| CCOC(=O)[C@H]1[C@@H](O)[C@@]2(O)c3c(OC)cc(OC)cc3O[C@@]2(c2ccc(OC)cc2)[C@@H]1c1ccc(Br)cc1 | 1.07 |
| Cc1ccc(C2C3=C(C(=O)N2Cc2ccccc2)N(C)CCN=C3C(C)C)cc1 (stereo not drawn) | 0.954 |
| CC(C)Cc1n[nH]c2c1C(c1ccc(F)cc1)N(CC1CCN(C)C1)C2=O (stereo not drawn) | 0.906 |
| CC(C)Cc1nn(-c2ccccc2)c2c1C(c1ccc(Br)cc1)NC2=O (stereo not drawn) | 0.902 |
| CC(C)CCCC(C)CCN(C(=O)OC(C)(C)C)S(=O)(=O)NC(C)(C)C (stereo not drawn) | 1.09 |
| COC(=O)C1=C(C)N(Cc2cccc(C(F)(F)F)c2)C(NCc2ccccc2)=NC1c1ccc(Cl)cc1 (stereo not drawn) | 0.843 |
| COC(=O)[C@@]1(/C=C/[C@@H](C)[C@H](OC)c2ccccc2Br)[C@@H]2OCC[C@@H]21 | 1.09 |
| CCOC(=O)C1=C(C)NC(=O)NC1c1ccc(C)cc1 (stereo not drawn) | 0.836 |
| CCCCC[C@@]12OCC[C@@H]1[C@@H]1OC(=O)c3c(O)cc(C)c4c(O)cc(c1c34)O2 | 1 |
| COC(=O)C(c1ccccc1)(c1ccccc1)C(NC(=O)OCc1ccccc1)c1ccccc1 (stereo not drawn) | 0.94 |
| CC(=O)OC[C@H]1O[C@H](C#Cc2ccccc2F)C=C[C@@H]1OC(C)=O | 0.798 |
| COC(=O)[C@H]1C(=O)[C@]2(c3cn(C)c4ccccc34)Oc3c(OC)cc(OC)cc3O[C@@]2(c2ccc(OC)cc2)[C@@H]1c1ccccc1 | 0.854 |

| SMILES | growth |
| --- | --- |
| CC(=O)OC[C@H]1O[C@H](C#Cc2cccc(Br)c2)C=C[C@@H]1OC(C)=O | 0.925 |
| COc1cc(C)c(O)c2c1-c1c(c(O)c3c(OC)cccc3c1O)C2=O | 1.18 |
| COc1ccc(-c2[nH]c3cccc(F)c3c(=O)c2O)cc1 | active: 0.0901 |
| COc1ccc(N2C(=O)C3=C(C(c4ccccc4)=NCCN3C)C2c2ccc(F)cc2)cc1 (stereo not drawn) | 1.03 |
| C[C@H]1C[C@@H]2CC(=O)N[C@H](Cc3ccccc3)C(=O)N2[C@H]1c1cccc(Br)c1 | 1.1 |
| C=CCN1c2ccccc2[C@]23CCC(=O)N(CC(=O)OC)C2=NC(C(=O)OC)=C(C(=O)OC)[C@H]13 | 0.996 |
| CN1CCN=C(c2ccccc2)C2=C1C(=O)N(c1ccccc1)C2c1cccc(C(F)(F)F)c1 (stereo not drawn) | 0.999 |
| COc1ccc(N2C(=O)C3=C(C(C)=NCCN3C)C2c2ccc(C)cc2)cc1 (stereo not drawn) | 1.07 |
| O=C1N(Cc2ccc(F)cc2)c2ccccc2[C@@]12O[C@H](COc1ccccc1)CC1=C2CCC1 | 1.12 |
| Nc1c(-c2ccc(Cl)cc2)cnc2c(-c3ccc(Cl)cc3)cnn12 | 1.15 |
| C[C@@H]1Cc2cc3c(cc2[C@]2(O1)C(=O)Nc1ccccc12)OCO3 | 0.886 |
| C=C(C)[C@@]1(O)C[C@@H](C)[C@]2(O)[C@@H]3CCC4(OCCO4)[C@@]3(O[Si](C)(C)C)CC(C)=C[C@]23O[C@H]13 | 1.03 |
| CO[C@@H]1[C@H](O)CC[C@]2(O)CN3c4ccccc4[C@@]4(C)O[C@H](CC4=C(C)C)[C@]3(C)[C@@]12O | 1.16 |
| C=CC[C@]12C[C@@]3(O[C@H](CCC)N=C3C[C@H](c3ccc(OC)cc3)[C@H]1C)N(Cc1ccncc1)C2=O | 0.87 |
| CCOc1ccc(-n2c(C)c3c(C)nnc(NC)c3c2C)cc1 | 1.01 |
| c1ccc(CCN2CCCC(CN(Cc3ccccc3)C3CC3)C2)cc1 (stereo not drawn) | 0.973 |
| C=CCOc1cc(OCOC)cc2oc(-c3ccc(OC)cc3OCOC)c(OCOC)c(=O)c12 | 1.01 |
| COC(=O)Cc1cccc2c(=O)c3ccc(C)c(C)c3oc12 | 1.03 |
| COc1ccc(OC)c(C(=O)c2c(O)cc(O[Si](C(C)C)(C(C)C)C(C)C)cc2OC)c1Br | 0.865 |
| CC(C)[C@@H](CN(C(=O)OC(C)(C)C)S(=O)(=O)NC(C)(C)C)N1C(=O)c2ccccc2C1=O | 0.941 |
| COc1ccc(N2C(=O)c3[nH]nc(CC(C)C)c3C2c2cccnc2OC)cc1 (stereo not drawn) | 0.974 |

| SMILES | growth |
| --- | --- |
| CO[C@@H]1[C@H](O)CC[C@]2(O)CN(c3nc(-c4ccccc4)cs3)[C@@H](CC=C(C)C)[C@](C)(O)[C@@H]12 | 1.13 |
| COc1ccc(N2C(=O)c3[nH]nc(CC(C)C)c3C2c2ccc(F)cc2OC)cc1F (stereo not drawn) | 0.946 |
| CC(C)Cc1n[nH]c2c1C(c1ccccc1Br)N(c1ccc3c(c1)OCC(=O)N3)C2=O (stereo not drawn) | 1.02 |
| Cc1cc(C)c2c(c1)N=C1CCCC[C@]12Cc1occc(=O)c1OS(C)(=O)=O | 1.16 |
| Clc1cccc2ccc(CCCc3ccccc3)nc12 | 1.05 |
| COc1cccc(Oc2c(C)cccc2C(=O)O)c1OCc1ccccc1 | 1.07 |
| CC(C)=CCc1ccc(OCC(=O)O)c2oc3ccccc3c(=O)c12 | 1.1 |
| CCCCCN(C(=O)OC(C)(C)C)S(=O)(=O)NCC | 1.19 |
| COc1ccc(-n2nc3c(c2C(C)C)C(c2ccccc2)NC3=O)cc1 (stereo not drawn) | 0.968 |
| CCOC(=O)C(C)(C)CC#CCN(CC#Cc1ccccc1)S(=O)(=O)c1ccc(C)cc1 | 0.933 |
| CO[C@@H]1[C@H](O)CC[C@]2(O)CN(c3ccc4c(c3)OCO4)[C@@H](CC=C(C)C)[C@](C)(O)[C@@H]12 | 0.881 |
| C#CCOC[C@H](NC(=O)[C@@H]1C[C@@H](O)CN1)c1ccccc1 | 0.918 |
| C#CCN1C(=O)N(C(C)=O)C(c2ccccc2)C(C(=O)OC)=C1C (stereo not drawn) | 0.889 |
| COCOc1cc(OC)cc(O)c1C(=O)/C=C/c1ccccc1 | 1.03 |
| C=CCN1C(=O)C2=C(C(C(C)C)=NCCN2C)C1c1ccccc1 (stereo not drawn) | 0.994 |
| COc1ccc2c(=O)c3c(F)cccc3oc2c1O | 1.02 |
| O[C@@H]1C[C@@H](c2ccccc2)[C@]2(c3ccc(Br)cc3)Oc3cc(F)cc(F)c3[C@]12O | 1.25 |
| COCCN1C(=O)[C@H]2C[C@@]13O[C@H](c1ccccn1)N=C3C[C@@H]1c3ccccc3C[C@]21C | 1.01 |
| CC(=O)C1=C2C=CCCN2C(=O)NC1c1cccc(C)c1 (stereo not drawn) | 1.02 |
| COc1ccc(N2C(=O)c3[nH]nc(CC(C)C)c3C2c2ccccc2OC)cc1F (stereo not drawn) | 1.14 |
